Data published in PubChem BioAssay AID686978 (National Center for Advancing Translational Sciences (NCATS), 2013).
Values joined by “and” are separate entries in the source; they are usually repeats but may differ in a detail not shown here. Identical values can stand only once. Out of some 420,000 compounds screened, about 64,000 (15%) were called active. The inconclusive results got no clear call from the source; some entries with a clear call stand among them for comparison. Calls come from the whole dose curve; as a rule, active = well fitted inhibition curve with a large enough effect; inconclusive = small, poorly fitted or top-dose-only effect; inactive = flat fitted curve, though single readings scatter. No potency is given beside an inconclusive call; the fits are too rough.
% is set by controls: 0 for no effect and ±100 for the full control effect; potency is the fitted concentration of half-maximal effect; tags give direction and shape of the fitted curve.

Assay: qHTS for Inhibitors of human tyrosyl-DNA phosphodiesterase 1 (TDP1): qHTS in cells in absence of CPT; note: nearly all actives have a fitted effect of over 55% in size
Details: DT40 Tdp1-/- hTDP1 cells, no CPT, ATP luminescence, 48 h; activity change, negative = growth inhibition: at 46.2 µM (top of the series) unless noted
Method in brief: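 Seeded 400 DT40-hTDP1 cells/well (vehicle DMSO, no 20 nM CPT); pinned compounds; ≥48 hr at 37 °C; CellTiter-Glo luminescence as viability measure.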
In the case of N#Cc1cc2c(nc1SCC(=O)N1CCCCC1)CCCCC2, the activity change, negative = growth inhibition is reported as inconclusive: -30.4% [inhibitor]. For CCOc1cc(-c2nc(C)c(C(C)=O)n2O)ccc1OCC(=O)Nc1ccccc1, the Potency was inconclusive [inhibitor, partial curve]. For Oc1c(Cl)cc(Cl)cc1Sc1cc(Cl)cc(Cl)c1O, the Potency was active: 15 µM and active: 23.1 µM. For CC(C(=O)Nc1ccccc1C#N)N1C(=O)NC2(CCCCCC2)C1=O (stereo not given), the Potency was inconclusive [inhibitor, partial curve, poor fit]. For C[C@@]12C(=O)N(CCc3c[nH]c4ccccc34)CC(=O)N1[C@H]1c3ccccc3OC[C@@H]1[C@@H]2c1ccccc1, the Potency was inconclusive [inhibitor, single point]. In the case of O=C(C1CCN(Cc2ccc(Cl)cc2)CC1)N1CCN(Cc2ccc3c(c2)OCO3)CC1, the Potency is reported as inconclusive [inhibitor, partial curve, poor fit]. In the case of COc1ccc(C2c3c(oc4ccccc4c3=O)C(=O)N2c2nc(C)c(C)s2)cc1 (stereo not given), the Potency is reported as “inactive”. For Cc1ccc(C(C(=O)NCc2ccccc2)N(C(=O)c2ccccn2)c2ccccc2)o1 (stereo not given), the Potency was inconclusive [inhibitor, single point]. In the case of O=C(Nc1cccc([N+](=O)[O-])c1)C1C2CCCCC21 (stereo not given), the Potency is reported as inconclusive [inhibitor, single point]. In the case of COc1ccccc1N(CC(=O)N1CCCCCC1)S(C)(=O)=O, the Potency is reported as “inactive”. With O=C(CCn1c2c(c3ccccc31)CCCC2)NNC(=O)c1ccccc1Cl the Potency was inconclusive [inhibitor, partial curve, poor fit]. In the case of CN(C)c1ccc2c(c1)Sc1cc(N(C)C)ccc1N2C(=O)c1ccccc1, the Potency is reported as active: 20.6 µM. With CC1Cc2ccccc2N1S(=O)(=O)c1cccc(C(=O)NCc2ccco2)c1 (stereo not given) the Potency was “inactive”. With COc1cccc(N=C(N)N=C(N)N)c1 the Potency was “inactive”. For O=C(CN1CCN(CC(=O)Nc2cccc(F)c2)CC1)NCC1(N2CCOCC2)CCCCC1, the Potency was “inactive”. In the case of O=C(Oc1ccc(Br)cc1C(=S)N1CCOCC1)c1ccc([N+](=O)[O-])cc1[N+](=O)[O-], the Potency is reported as inconclusive [inhibitor, single point]. With O=C(NCc1ccncc1)c1nc(-c2ccc(C(F)(F)F)cc2)no1 the Potency was active: 8.2 µM. With COC(=O)c1ccccc1NC(=O)CSc1n[nH]c(-c2ccncc2)n1 the Potency was inconclusive [inhibitor, partial curve]. For C/C(Cl)=C\Cn1c(Nc2ccc(C)cc2)nc2c1c(=O)n(C)c(=O)n2C, the Potency was inconclusive [inhibitor, single point]. For CN(Cc1ccccc1)C(=O)CSc1nnc(-c2ccco2)n1-c1ccccc1, the Potency was inconclusive [inhibitor, single point]. For C=C(C)C(=O)Nc1cccc(C2=NOC3(C2)C[C@H](C(N)=O)N(C(=O)/C=C/C)C3)c1 (stereo not given in full), the Potency was “inactive”. With CCc1nnc(NC(=O)c2cc(-c3cccnc3)nc3ccccc23)s1 the activity change, negative = growth inhibition was inconclusive: -32.6% [inhibitor]. In the case of CCN(CC)CC(=O)Nc1ccc(C)cc1C(=O)c1ccccc1, the Potency is reported as inconclusive [inhibitor, single point]. For O=[N+]([O-])/C(C(Cl)=C(Cl)Cl)=C(/Sc1ccccc1)N1CCCCC1, the Potency was active: 13 µM. In the case of Cn1ccc2c(-c3cccnc3)cc3c(c21)C1CCC3C1 (stereo not given), the Potency is reported as inconclusive [inhibitor, single point]. In the case of Cn1c(C(=O)N2CCN(c3cccc(C(F)(F)F)c3)CC2)cc2sccc21, the Potency is reported as inconclusive [inhibitor, single point]. For c1ccc(-n2nnnc2SCc2cccc(CSc3nnnn3-c3ccccc3)n2)cc1, the Potency was active: 13 µM. For COc1cccc(C2c3c(oc4ccc(F)cc4c3=O)C(=O)N2CCN2CCOCC2)c1OC (stereo not given), the Potency was “inactive”. For CCc1ccc(CCC(=O)Nc2ncc(Cc3ccccc3Cl)s2)o1, the Potency was active: 5.8 µM. For CCOC(=O)C1=C(C)Nc2nc3ccccc3n2C1c1ccncc1 (stereo not given), the Potency was inconclusive [inhibitor, single point]. In the case of C[C@H](O)[C@@]1(O)CC[C@H]2[C@@H]3CC[C@@H]4C[C@H](O)CC[C@]4(C)[C@H]3CC[C@@]21C, the Potency is reported as inconclusive [inhibitor, single point]. With COc1ccc(CC(N)c2csc(NC(=O)c3ccccc3)n2)cc1 (stereo not given) the Potency was inconclusive [inhibitor, single point]. For Cc1n[nH]c(C)c1N=Nc1cc(Cl)ccc1Cl, the Potency was inconclusive [inhibitor, partial curve]. For COc1ccc(NC(=O)NCCCN2CCN(c3cc(C)ccc3C)CC2)cc1, the Potency was active: 8.2 µM. For CC(C)Oc1cccc(C(=O)Nc2ccc3oc(-c4ccccc4)nc3c2)c1, the Potency was active: 20.6 µM. For COc1ccc2[nH]cc(CCNc3ncncc3-c3ccc4c(c3)OCO4)c2c1, the Potency was active: 18.4 µM. In the case of O=C(Cn1cc(S(=O)(=O)Cc2ccccc2Cl)c2ccccc21)Nc1cccc(C(F)(F)F)c1, the Potency is reported as inconclusive [inhibitor, single point]. For CCc1nnc(NC(=O)c2c(O)c3c([nH]c2=O)CCCC3)s1, the Potency was “inactive”. For COc1cccc(CNS(=O)(=O)c2ccccc2Br)c1OC, the Potency was inconclusive [inhibitor, single point]. In the case of COc1ccc(CNc2nc3ccccc3n2Cc2ccc(Cl)cc2)cc1OC, the Potency is reported as active: 13 µM. For O=C1c2[nH]nc(-c3ccccc3O)c2C(c2ccc(F)cc2)N1CC1CCCO1 (stereo not given), the Potency was inconclusive [inhibitor, single point]. With Cc1nc2nc(C)c(CCC(=O)NCCc3ccccc3)c(C)n2n1 the Potency was “inactive”. With Cc1sc2ncnc(N3CCCC(C)C3)c2c1C (stereo not given) the Potency was inconclusive [inhibitor, partial curve]. In the case of Cc1ccc(S(=O)(=O)N(CC(=O)Nc2c(C)cccc2C)c2cccc(Cl)c2)cc1, the Potency is reported as active: 14.6 µM. With Cc1ccc([C@@H]2C[C@H]3CN(Cc4cccc(Cl)c4)C(=O)[C@]34CCCN24)o1 the Potency was “inactive”.
